Measured values: the supplement of paper PMC4967469
Lines with a small IC50 respond at low doses; fits outside the tested doses are given as limits. AUC, from the same fit, is the share of area under the viability curve across the 256-fold dose range; the more sensitive the line, the further below 1. For part of these data: A top dose marked as inferred is not printed in the source and was worked back from the curve model.

Legend:
Test in all cases: Viability of human cancer cell lines after 72 h of drug (GDSC screen)
[1] = compound: CN(C)C/C=C/C(=O)Nc1ccc(C(=O)Nc2cccc(Nc3nccc(-c4cccnc4)n3)c2)cc1 [ZG-10]; conditions: top dose 10 µM; top dose inferred
Description: (§1)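 Human cancer cell lines in 384-well plates, medium with 10% serum, drug for 72 h over a 256-fold dose range (nine 2-fold or five 4-fold steps up to the top dose). Adherent lines were fixed and stained with the nucleic acid dye Syto60, suspension lines read with resazurin; signal relative to control wells, capped at 0 and 100%. One two-parameter sigmoid per drug and line, fitted in a mixed model over all curves with the slope shared within a line.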

[2] = compound: CN1CCc2c(c3ccccc3n2Cc2ccc(C(=O)NO)cc2)C1 [Tubastatin A]; conditions: top dose 20 µM
Description: as §1

[3] = compound: Oc1ccc2ccccc2c1SSc1c(O)ccc2ccccc12 [IPA-3]; conditions: top dose 32 µM; top dose inferred
Description: as §1

[4] = compound: O=C(NOCC1CC1)c1ccc(F)c(F)c1Nc1ccc(I)cc1Cl [CI-1040]; conditions: top dose 10 µM; top dose inferred
Description: as §1

[5] = compound: CO[C@H]1C[C@@H]2CC[C@@H](C)[C@@](O)(O2)C(=O)C(=O)N2CCCC[C@H]2C(=O)O[C@H]([C@H](C)C[C@@H]2CC[C@@H](O)[C@H](OC)C2)CC(=O)[C@H](C)/C=C(\C)[C@@H](O)[C@@H](OC)C(=O)[C@H](C)C[C@H](C)/C=C/C=C/C=C/1C [Rapamycin]; conditions: top dose 0.1 µM; top dose inferred
Description: as §1

[6] = compound: CCCC[C@@H](C=O)NC(=O)[C@H](CC(C)C)NC(=O)[C@H](CC(C)C)NC(=O)OCc1ccccc1 [Z-LLNle-CHO]; conditions: top dose 2.56 µM; top dose inferred
Description: as §1

[7] = compound: COc1cc2c(Oc3ccc(NC(=O)C4(C(=O)Nc5ccc(F)cc5)CC4)cc3F)ccnc2cc1OCCCN1CCOCC1 [XL-880]; conditions: top dose 5.12 µM; top dose inferred
Description: as §1

[8] = compound: Cn1nnc2c(C(N)=O)ncn2c1=O [Temozolomide]; conditions: top dose 30 µM
Description: as §1

[9] = compound: CCC(=O)N1CCN(c2ccc(-n3c(=O)ccc4cnc5ccc(-c6cnc7ccccc7c6)cc5c43)cc2C(F)(F)F)CC1 [JW-7-52-1]; conditions: top dose 1.2 µM; top dose inferred
Description: as §1

| Cell Line | AUC [1] | IC50 [1] [nM] | AUC [2] | IC50 [2] [µM] | AUC [3] | IC50 [3] [µM] | AUC [4] | IC50 [4] [µM] | AUC [5] | IC50 [5] [nM] | AUC [6] | IC50 [6] [nM] | AUC [7] | IC50 [7] [nM] | AUC [8] | IC50 [8] [µM] | AUC [9] | IC50 [9] [nM] |
| --- | --- | --- | --- | --- | --- | --- | --- | --- | --- | --- | --- | --- | --- | --- | --- | --- | --- | --- |
| NOS-1 (osteosarcoma, adherent) | 0.773 | 4810 | 0.933 | > 20 | 0.695 | 8.06 | 0.846 | 9.94 | 0.132 | < 0.391 | 0.778 | 1290 | 0.262 | 56.3 | 0.977 | > 30 |  |  |
| HCC1500 (breast, adherent) |  |  | 0.953 | > 20 | 0.952 | > 32 | 0.939 | > 10 | 0.943 | > 100 |  |  | 0.919 | > 5120 | 0.985 | > 30 |  |  |
| KYM-1 (rhabdomyosarcoma, adherent) |  |  | 0.989 | > 20 | 0.773 | 10.7 | 0.901 | 9.7 | 0.202 | 0.979 |  |  | 0.889 | 4360 | 0.987 | > 30 |  |  |
| NCI-H1299 (large cell lung carcinoma, adherent) |  |  | 0.982 | > 20 | 0.781 | 16.6 |  |  | 0.958 | > 100 |  |  | 0.765 | 2290 | 0.95 | > 30 |  |  |
| TGBC24TKB (biliary tract, adherent) |  |  | 0.984 | > 20 | 0.99 | > 32 |  |  | 0.443 | 4.42 | 0.976 | > 2560 | 0.663 | 876 | 0.989 | > 30 |  |  |
| VA-ES-BJ (soft tissue, adherent) | 0.72 | 2740 | 0.973 | > 20 | 0.863 | 30.4 | 0.838 | 7.31 | 0.233 | 0.998 | 0.725 | 728 | 0.682 | 1060 | 0.98 | > 30 |  |  |
| KALS-1 (glioma, adherent) |  |  | 0.941 | > 20 | 0.962 | > 32 |  |  | 0.432 | 3.8 | 0.714 | 822 | 0.703 | 1490 | 0.962 | > 30 |  |  |
| ETK-1 (biliary tract, adherent) | 0.774 | 4470 | 0.913 | > 20 | 0.873 | > 32 | 0.874 | > 10 | 0.102 | < 0.391 | 0.817 | 1680 | 0.617 | 704 | 0.971 | > 30 |  |  |
| UACC-812 (breast, adherent) |  |  | 0.874 | 18.3 | 0.991 | > 32 |  |  | 0.9 | > 100 |  |  | 0.882 | > 5120 |  |  |  |  |
| ES6 (Ewing sarcoma, adherent) | 0.698 | 2600 | 0.947 | > 20 | 0.823 | 25.1 | 0.949 | > 10 |  |  | 0.636 | 418 | 0.689 | 1240 | 0.975 | > 30 | 0.261 | 13 |
| OS-RC-2 (kidney, adherent) | 0.771 | 5660 | 0.701 | 6 | 0.935 | > 32 | 0.782 | 6.31 |  |  | 0.859 | > 2560 | 0.608 | 722 | 0.975 | > 30 | 0.286 | 13.9 |
| RKO (large intestine, adherent) | 0.768 | 3490 | 0.895 | > 20 | 0.658 |  | 0.832 | 5.77 |  |  | 0.72 | 638 | 0.671 | 923 | 0.987 | > 30 | 0.248 | 15.2 |
| BB65-RCC (kidney, adherent) | 0.714 | 2800 | 0.98 | > 20 | 0.728 | 9.96 | 0.667 | 1.96 |  |  | 0.757 | 1000 | 0.692 | 1210 | 0.98 | > 30 | 0.317 | 21.3 |
| BL-41 (Burkitt lymphoma, suspension) | 0.5 | 623 | 0.787 | 6.59 | 0.584 | 3.21 | 0.914 | 8.4 |  |  | 0.662 | 400 | 0.378 | 161 | 0.993 | > 30 | 0.157 | 9.86 |
| SNB75 (glioma, adherent) | 0.676 | 2450 | 0.953 | > 20 | 0.976 | > 32 | 0.893 | > 10 |  |  | 0.835 | > 2560 | 0.75 | 2410 | 0.976 | > 30 | 0.413 | 38.7 |
| RXF393 (kidney, adherent) | 0.642 | 1810 | 0.934 | > 20 | 0.845 | > 32 | 0.762 | 4.94 |  |  | 0.767 | 1340 | 0.534 | 411 | 0.975 | > 30 | 0.409 | 38.5 |
| KLE (endometrium, adherent) |  |  | 0.936 | > 20 | 0.848 | > 32 | 0.921 | > 10 | 0.777 | 66.3 | 0.65 | 529 | 0.701 | 1640 | 0.975 | > 30 |  |  |
| Farage (B-cell lymphoma, suspension) | 0.842 | 5260 | 0.943 | > 20 | 0.511 | 2.13 | 0.851 | 5.65 |  |  | 0.745 | 687 | 0.583 | 517 | 0.99 | > 30 | 0.499 | 74.6 |
